Measured values published in ChEMBL document CHEMBL4888484, “Replenishing the malaria drug discovery pipeline: Screening and hit evaluation of the MMV Hit Generation Library 1 (HGL1) against asexual blood stage Plasmodium falciparum ,using a nano luciferase reporter read-out” (2022).
Among all 150,000 compounds or so, about 540 (0.36%) showed an effect of 50% or more. This is one part of the list.

system: Plasmodium falciparum; test: Primary screen in NF54 nanoGlo assay, in single point, at 2uM, 72h; a lower Z score goes with more inhibition; assay type: functional, Erythrocyte; settings: timepoint 72 hour

| Structure (SMILES) | % Inhibition | Z score |
| --- | --- | --- |
| C[C@H](O)CN1CCC(CN(C)Cc2ccn(-c3ccccc3)n2)CC1 | -4% | 0.57 |
| O=C(c1cnc(Cc2c(Cl)cccc2Cl)nc1O)N1CCCOCC1 | -9% | 1.8 |
| Cc1c[nH]c(CN(C)C(=O)c2cc3cnccc3nc2C)n1 | 7% | -1.35 |
| COc1ccc(C(=O)Nc2c(-c3ccccc3Cl)c(=O)c(C)nn2-c2ccc(C)cc2)cc1 | 9% | -1.23 |
| CC(C)C(=O)N1CCCN([C@@H](C)C(=O)N2CCc3ccccc32)CC1 | 4% | -0.36 |
| O=C(C(O)c1ccccc1)N1CCC2C(CCC(=O)N2C2CC2)C1 (centres undefined) | 2% | -0.3 |
| O=C(COc1ccccc1)N1CC(c2nc(-c3cnccn3)no2)C1 | 4% | -0.79 |
| Cc1cc(CNCc2cc3ccc(F)cc3nc2OCc2ccccc2Cl)on1 | -1% | 0.13 |
| CC(NC(=O)c1cccc(C(=O)NC(C)c2ccccc2)n1)c1ccccc1 (centres undefined) | -7% | 0.91 |
| Cc1cccc(C)c1NC(=O)[C@H]1CCCN(C(=O)Cc2cccc3ccccc23)C1 | -3% | 0.47 |
| CCN(Cc1nc(C)no1)Cc1cc2cc3c(cc2nc1-c1ccc(F)cc1)OCO3 | -10% | 1.35 |
| O=C(NC1COCCOC1)N1CCC2(c3ccccc3)C(C1)C2(F)F (centres undefined) | 4% | -0.61 |
| CCCO/C(=N/C(=O)c1ccccc1Cl)NCc1ccc2c(c1)OCO2 | -12% | 1.98 |
| CC(Cn1cccn1)NCC(=O)N(C)CC1COc2ccccc2O1 (centres undefined) | -7% | 0.59 |
| CC1(C)CN(C(=O)Nc2ccn(CCN3CCNC3=O)n2)C1 | -4% | 0.46 |
| COc1cc(N[C@H]2C[C@H](c3nnc(CN(C)C)n3C)C2)nc(OC)n1 | 11% | -1.47 |
| CC(C)CC(=O)N1CCc2cc(CNS(=O)(=O)c3ccc(C4CCCCC4)cc3)ccc21 | -10% | 1.88 |
| CC[C@@H]1OC2(CCN(c3cccc(C(F)(F)F)n3)CC2)NC1=O | -6% | 1 |
| O=C(NCc1ccc(C(=O)N2CCOCC2)cc1)N1CCc2c(nnn2-c2ccccc2)C1 | -11% | 1.32 |
| CCc1nn(C)cc1NC(=O)NCC[C@H]1CC(=O)N(C)C1 | -2% | 0.37 |
| Cc1cccc(CNC(=O)C2CC(c3ccc(F)cc3)CN(Cc3ccc(F)cc3F)C2)c1 (centres undefined) | -2% | 0.35 |

| Structure (SMILES) | % Inhibition | Z score |
| --- | --- | --- |
| Cc1nnc2n1CCN(C(=O)Cc1cccs1)[C@H]2C(=O)N1CCCC1 | -11% | 1.23 |
| CCCc1c(C(C)C)nc(N)c(C#N)c1-c1cn(CCO)nc1C | -5% | 0.83 |
| O=C(NCCc1ccccn1)c1cc2n(n1)CCN(Cc1c(Cl)cccc1Cl)C2=O | 14% | -1.4 |
| Cc1cc(C)c(C(=O)NCc2ccc3c(c2)CN(C(=O)c2oc(C)cc2C)C3)o1 | -8% | 1.35 |
| CCOC(=O)Cn1nc(C)cc1NC(=O)COC[C@H]1CCCO1 | -6% | 0.98 |
| COc1cc(C)sc1C(=O)N(C)C[C@H]1CCCOC1 | -12% | 1.53 |
| Cc1ccnc(NC(=O)c2cscc2C)n1 | -6% | 0.68 |
| O=C(N[C@H]1CCN(c2ccc3nncn3n2)C1)OC1CN(Cc2ccccc2)C1 | -9% | 1.46 |
| CC(C)CCN(C(=O)COc1ccc(CC(N)=O)cc1)C1CC1 | -5% | 0.78 |
| C[C@@H](Cc1cccs1)C(=O)N1CCCC1 | 0% | 0.04 |
| CCc1nnc2c(S(=O)(=O)N(Cc3cccc(Cl)c3)c3ccccc3)cccn12 | -17% | 2.2 |
| COc1ccc2c(c1)[C@@H](NC(=O)c1c3c(nn1C)CCCC3)CC(C)(C)O2 | 4% | -0.82 |
| Cc1ccc(F)c(Cn2nc(C)c([C@@H]3CCCC(=O)N3)c2C)c1 | 1% | -0.12 |
| CN1CCN(C(=O)CN2C(=O)COc3ccccc32)CC1 | -13% | 2.24 |
| CS(=O)(=O)Cc1noc(NS(=O)(=O)c2csc3ccc(Cl)cc23)n1 | -7% | 0.6 |
| COc1ccc(CN2C(=O)COC[C@H]2C(=O)Nc2ccc(C(C)C)cc2)cc1OC | -3% | 0.32 |
| COC(=O)Oc1cncc(C(=O)ON2C(=O)CCC2=O)c1 | 5% | -0.98 |
| c1csc(CCN2CCC(n3ccnn3)CC2)c1 | -12% | 1.27 |
| Cc1c(NC(=O)NCCC2CC3CCC2C3)c(=O)n(-c2ccccc2)n1C (centres undefined) | -5% | 1.13 |
| Cc1nnc(COc2c(F)cc(F)cc2Br)n1C1CC1 | 4% | -0.44 |
| O=C(NC[C@H]1CCC[C@@H](CO)C1)c1ncoc1C(F)(F)F | -7% | 0.88 |
